Assay results reported in a compilation of properties of binary mixtures (doi:10.3866/pku.whxb202001015).
The densities may have been worked out from excess volumes.

Assay: xn = mol fraction of the nth substance listed
Conditions: 293.15 K, 101.3 kPa

Question: For `CC(=O)[O-].Cn1cc[nH+]c1` + O, which mass density (x2 = 0) is on record?
Answer: 1156.1 kg/m3

Question: And the mass density (x2 = 0.2845)?
Answer: 1151.5 kg/m3

Question: What about the mass density (x2 = 0.4277) of the same molecule?
Answer: 1147.3 kg/m3

Question: And the mass density (x2 = 0.5098)?
Answer: 1143.6 kg/m3

Question: And the mass density (x2 = 0.6959)?
Answer: 1127.8 kg/m3

Question: What about the mass density (x2 = 0.8691) of the same molecule?
Answer: 1088.6 kg/m3

Question: What about the mass density (x2 = 0.9207) of the same molecule?
Answer: 1064.6 kg/m3

Question: What about the mass density (x2 = 0.9425) of the same molecule?
Answer: 1050.8 kg/m3

Question: What about the mass density (x2 = 0.9559) of the same molecule?
Answer: 1041.1 kg/m3

Question: And the mass density (x2 = 0.9677)?
Answer: 1031.8 kg/m3
